# Measurements from the supplement of paper PMC8728848.
# This is one part of the list.
# B1: PRKCE (Homo sapiens), Q02156 (protein)
# chain: MVVFNGLLKIKICEAVSLKPTAWSLRHAVGPRPQTFLLDPYIALNVDDSRIGQTATKQKTNSPAWHDEFVTDVCNGRKIELAVFHDAPIGYDDFVANCTIQFEELLQNGSRHFEDWIDLEPEGRVYVIIDLSGSSGEAPKDNEERVFRERMRPRKRQGAVRRRVHQVNGHKFMATYLRQPTYCSHCRDFIWGVIGKQGYQCQVCTCVVHKRCHELIITKCAGLKKQETPDQVGSQRFSVNMPHKFGIHNYKVPTFCDHCGSLLWGLLRQGLQCKVCKMNVHRRCETNVAPNCGVDARGIAKVLADLGVTPDKITNSGQRRKKLIAGAESPQPASGSSPSEEDRSKSAPTSPCDQEIKELENNIRKALSFDNRGEEHRAASSPDGQLMSPGENGEVRQGQAKRLGLDEFNFIKVLGKGSFGKVMLAELKGKDEVYAVKVLKKDVILQDDDVDCTMTEKRILALARKHPYLTQLYCCFQTKDRLFFVMEYVNGGDLMFQIQRSRKFDEPRSRFYAAEVTSALMFLHQHGVIYRDLKLDNILLDAEGHCKLADFGMCKEGILNGVTTTTFCGTPDYIAPEILQELEYGPSVDWWALGVLMYEMMAGQPPFEADNEDDLFESILHDDVLYPVWLSKEAVSILKAFMTKNPHKRLGCVASQNGEDAIKQHPFFKEIDWVLLEQKKIKPPFKPRIKTKRDVNNFDQDFTREEPVLTLVDEAIVKQINQEEFKGFSYFGEDLMP
# Assays:
# Assay in all cases: glycan array binding signal (z-score within array); higher = stronger binding
# Conditions in all cases: glycan notation: IUPAC condensed, linker removed
# [1] = target: Gal(a1-4)Gal(b1-4)GlcNAc
# In short: (§1)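 From the Consortium for Functional Glycomics database, 3228 arrays were curated, keeping only those whose protein sequence was available. Binding is given as a within-array Z-score averaged across arrays sharing a protein sequence and across linkers. Negative Z-scores can be read as non-binding.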
# [2] = target: Gal(a1-4)Gal(b1-4)GlcNAc(b1-2)Man(a1-3)[Gal(a1-4)Gal(b1-4)GlcNAc(b1-2)Man(a1-6)]Man(b1-4)GlcNAc(b1-4)GlcNAc
# In short: as §1
# [3] = target: Gal(a1-4)Gal(b1-4)GlcNAc(b1-3)Gal(b1-4)Glc
# In short: as §1
# [4] = target: Gal(a1-4)GlcNAc
# In short: as §1
# [5] = target: Gal(a1-6)Glc
# In short: as §1
# [6] = target: Gal(b1-2)Gal
# In short: as §1
# [7] = target: Gal(b1-3)Gal
# In short: as §1
# [8] = target: Gal(b1-3)Gal(b1-4)GlcNAc
# In short: as §1
# [9] = target: Gal(b1-3)Gal(b1-4)GlcNAc(b1-2)Man(a1-3)[Gal(b1-3)Gal(b1-4)GlcNAc(b1-2)Man(a1-6)]Man(b1-4)GlcNAc(b1-4)GlcNAc
# In short: as §1
# [10] = target: Gal(b1-3)GalNAc
# In short: as §1
# [11] = target: Gal(b1-3)GalNAc(a1-3)[Fuc(a1-2)]Gal(b1-4)Glc
# In short: as §1
# [12] = target: Gal(b1-3)GalNAc(a1-3)[Fuc(a1-2)]Gal(b1-4)GlcNAc
# In short: as §1
# [13] = target: Gal(b1-3)GalNAc(b1-3)Gal(a1-4)Gal(b1-4)Glc
# In short: as §1
# [14] = target: Gal(b1-3)GalNAc(b1-4)Gal(b1-4)Glc
# In short: as §1
# [15] = target: Gal(b1-3)GalNAc(b1-4)[Neu5Ac(a2-3)]Gal(b1-4)Glc
# In short: as §1
# [16] = target: Gal(b1-3)GlcNAc
# In short: as §1
# [17] = target: Gal(b1-3)GlcNAc(a1-3)Gal(b1-4)GlcNAc
# In short: as §1
# [18] = target: Gal(b1-3)GlcNAc(a1-6)Gal(b1-4)GlcNAc
# In short: as §1
# [19] = target: Gal(b1-3)GlcNAc(b1-2)Man(a1-3)[Gal(b1-3)GlcNAc(b1-2)Man(a1-6)]Man(b1-4)GlcNAc(b1-4)GlcNAc
# In short: as §1
# [20] = target: Gal(b1-3)GlcNAc(b1-2)Man(a1-3)[Gal(b1-3)GlcNAc(b1-2)Man(a1-6)]Man(b1-4)GlcNAc(b1-4)[Fuc(a1-6)]GlcNAc
# In short: as §1
# [21] = target: Gal(b1-3)GlcNAc(b1-2)Man(a1-3)[GlcNAc(b1-4)][Gal(b1-3)GlcNAc(b1-2)Man(a1-6)]Man(b1-4)GlcNAc(b1-4)GlcNAc
# In short: as §1
# [22] = target: Gal(b1-3)GlcNAc(b1-2)[Gal(b1-3)GlcNAc(b1-6)]Man(a1-6)[Gal(b1-3)GlcNAc(b1-2)Man(a1-3)]Man(b1-4)GlcNAc(b1-4)GlcNAc
# In short: as §1
# [23] = target: Gal(b1-3)GlcNAc(b1-3)Gal(b1-3)GlcNAc
# In short: as §1
# [24] = target: Gal(b1-3)GlcNAc(b1-3)Gal(b1-4)Glc
# In short: as §1
# [25] = target: Gal(b1-3)GlcNAc(b1-3)Gal(b1-4)GlcNAc
# In short: as §1
# [26] = target: Gal(b1-3)GlcNAc(b1-3)Gal(b1-4)GlcNAc(b1-6)[Gal(b1-3)GlcNAc(b1-3)]Gal(b1-4)Glc
# In short: as §1
# [27] = target: Gal(b1-3)GlcNAc(b1-3)Gal(b1-4)[Fuc(a1-3)]GlcNAc(b1-6)[Gal(b1-3)GlcNAc(b1-3)]Gal(b1-4)Glc
# In short: as §1
# [28] = target: Gal(b1-3)GlcNAc(b1-3)GalNAc
# In short: as §1
# [29] = target: Gal(b1-3)GlcNAc(b1-6)Gal(b1-4)GlcNAc
# In short: as §1
# [30] = target: Gal(b1-3)GlcNAc(b1-6)GalNAc
# In short: as §1
binder,measurement,setting,value
B1,glycan array binding signal (z-score),[1],-0.379
same,glycan array binding signal (z-score),[2],-0.363
same,glycan array binding signal (z-score),[3],-0.141
same,glycan array binding signal (z-score),[4],-0.219
same,glycan array binding signal (z-score),[5],0.372
same,glycan array binding signal (z-score),[6],-0.175
same,glycan array binding signal (z-score),[7],-0.295
same,glycan array binding signal (z-score),[8],-0.177
same,glycan array binding signal (z-score),[9],-0.328
same,glycan array binding signal (z-score),[10],-0.389
same,glycan array binding signal (z-score),[11],-0.17
same,glycan array binding signal (z-score),[12],-0.198
same,glycan array binding signal (z-score),[13],-0.366
same,glycan array binding signal (z-score),[14],-0.385
same,glycan array binding signal (z-score),[15],-0.139
same,glycan array binding signal (z-score),[16],-0.364
same,glycan array binding signal (z-score),[17],-0.29
same,glycan array binding signal (z-score),[18],-0.301
same,glycan array binding signal (z-score),[19],0.131
same,glycan array binding signal (z-score),[20],-0.306
same,glycan array binding signal (z-score),[21],-0.364
same,glycan array binding signal (z-score),[22],-0.379
same,glycan array binding signal (z-score),[23],-0.417
same,glycan array binding signal (z-score),[24],-0.1
same,glycan array binding signal (z-score),[25],-0.361
same,glycan array binding signal (z-score),[26],-0.234
same,glycan array binding signal (z-score),[27],-0.277
same,glycan array binding signal (z-score),[28],-0.357
same,glycan array binding signal (z-score),[29],-0.374
same,glycan array binding signal (z-score),[30],0.309
